The record followed here is paper PMC7067772, “Digenic inheritance of mutations in EPHA2 and SLC26A4 in Pendred syndrome” (Nature Communications, 2020).

Sequences of proteins named here, by UniProt entry; tags and fusion partners are left off. A change or cut given only in a name is not applied to a line headed by its entry. A line that says so, or that is headed by a name, gives the form on record, which may keep a tag or linker. Residues count along the entry.
UniProt P52799, residues 28-229: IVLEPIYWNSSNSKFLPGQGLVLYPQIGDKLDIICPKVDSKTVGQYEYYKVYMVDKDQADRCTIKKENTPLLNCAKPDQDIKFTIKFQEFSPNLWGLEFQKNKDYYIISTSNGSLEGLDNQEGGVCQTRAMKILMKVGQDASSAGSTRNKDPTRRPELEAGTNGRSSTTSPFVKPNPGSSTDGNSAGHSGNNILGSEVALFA
UniProt Q03145, residues 26-977: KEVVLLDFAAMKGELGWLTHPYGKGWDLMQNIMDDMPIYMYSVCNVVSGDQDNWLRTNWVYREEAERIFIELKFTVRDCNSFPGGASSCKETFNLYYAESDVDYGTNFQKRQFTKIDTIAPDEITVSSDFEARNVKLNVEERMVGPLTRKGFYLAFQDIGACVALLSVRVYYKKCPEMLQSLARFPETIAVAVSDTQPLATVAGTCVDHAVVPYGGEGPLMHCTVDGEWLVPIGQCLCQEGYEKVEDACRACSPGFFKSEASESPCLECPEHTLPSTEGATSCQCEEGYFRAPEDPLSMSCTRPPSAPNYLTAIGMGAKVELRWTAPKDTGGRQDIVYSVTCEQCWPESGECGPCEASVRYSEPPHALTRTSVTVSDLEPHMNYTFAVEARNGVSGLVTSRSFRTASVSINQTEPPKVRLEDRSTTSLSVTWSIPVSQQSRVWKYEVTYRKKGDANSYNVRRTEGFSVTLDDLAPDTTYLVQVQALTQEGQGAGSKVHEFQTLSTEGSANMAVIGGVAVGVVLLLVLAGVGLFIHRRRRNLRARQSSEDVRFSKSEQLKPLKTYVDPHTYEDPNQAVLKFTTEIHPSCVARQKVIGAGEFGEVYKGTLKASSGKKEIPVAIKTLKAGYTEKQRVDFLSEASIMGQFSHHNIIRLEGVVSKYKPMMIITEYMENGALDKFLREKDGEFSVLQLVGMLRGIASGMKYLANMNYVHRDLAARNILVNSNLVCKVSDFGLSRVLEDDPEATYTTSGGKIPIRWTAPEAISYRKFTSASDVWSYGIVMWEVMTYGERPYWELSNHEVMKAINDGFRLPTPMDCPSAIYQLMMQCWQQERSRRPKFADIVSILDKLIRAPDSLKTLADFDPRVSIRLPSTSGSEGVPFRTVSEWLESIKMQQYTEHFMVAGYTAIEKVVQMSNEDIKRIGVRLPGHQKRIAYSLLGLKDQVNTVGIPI
V5-EphA2 (pcDNA3.2-V5-EphA2) (P29317, residues 24-976): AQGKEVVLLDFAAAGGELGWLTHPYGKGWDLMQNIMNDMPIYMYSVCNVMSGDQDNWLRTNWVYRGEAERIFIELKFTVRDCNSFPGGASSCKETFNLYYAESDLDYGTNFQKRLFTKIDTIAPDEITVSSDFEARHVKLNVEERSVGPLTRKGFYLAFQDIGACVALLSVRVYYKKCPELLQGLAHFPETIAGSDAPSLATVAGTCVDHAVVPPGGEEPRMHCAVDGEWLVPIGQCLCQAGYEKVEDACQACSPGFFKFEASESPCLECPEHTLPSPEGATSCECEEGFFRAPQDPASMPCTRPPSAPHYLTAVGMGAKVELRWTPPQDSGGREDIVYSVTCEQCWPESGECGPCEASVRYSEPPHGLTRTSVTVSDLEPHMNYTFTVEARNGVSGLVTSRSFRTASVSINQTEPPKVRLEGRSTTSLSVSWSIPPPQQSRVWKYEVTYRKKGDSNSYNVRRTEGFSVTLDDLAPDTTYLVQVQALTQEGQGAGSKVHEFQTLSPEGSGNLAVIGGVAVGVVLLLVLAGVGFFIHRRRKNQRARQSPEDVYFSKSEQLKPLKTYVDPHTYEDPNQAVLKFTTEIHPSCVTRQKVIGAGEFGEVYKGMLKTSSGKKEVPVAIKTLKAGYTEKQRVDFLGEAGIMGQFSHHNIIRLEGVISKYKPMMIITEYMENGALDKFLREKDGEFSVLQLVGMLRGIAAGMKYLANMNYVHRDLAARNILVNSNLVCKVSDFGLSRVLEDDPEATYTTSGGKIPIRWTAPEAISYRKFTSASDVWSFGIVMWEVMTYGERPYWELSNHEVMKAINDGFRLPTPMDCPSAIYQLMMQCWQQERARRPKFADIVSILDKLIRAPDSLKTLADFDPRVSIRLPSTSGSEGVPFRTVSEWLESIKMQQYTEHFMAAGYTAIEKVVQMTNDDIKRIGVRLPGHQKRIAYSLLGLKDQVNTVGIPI
V5-EphA2 G355R (P29317, form named): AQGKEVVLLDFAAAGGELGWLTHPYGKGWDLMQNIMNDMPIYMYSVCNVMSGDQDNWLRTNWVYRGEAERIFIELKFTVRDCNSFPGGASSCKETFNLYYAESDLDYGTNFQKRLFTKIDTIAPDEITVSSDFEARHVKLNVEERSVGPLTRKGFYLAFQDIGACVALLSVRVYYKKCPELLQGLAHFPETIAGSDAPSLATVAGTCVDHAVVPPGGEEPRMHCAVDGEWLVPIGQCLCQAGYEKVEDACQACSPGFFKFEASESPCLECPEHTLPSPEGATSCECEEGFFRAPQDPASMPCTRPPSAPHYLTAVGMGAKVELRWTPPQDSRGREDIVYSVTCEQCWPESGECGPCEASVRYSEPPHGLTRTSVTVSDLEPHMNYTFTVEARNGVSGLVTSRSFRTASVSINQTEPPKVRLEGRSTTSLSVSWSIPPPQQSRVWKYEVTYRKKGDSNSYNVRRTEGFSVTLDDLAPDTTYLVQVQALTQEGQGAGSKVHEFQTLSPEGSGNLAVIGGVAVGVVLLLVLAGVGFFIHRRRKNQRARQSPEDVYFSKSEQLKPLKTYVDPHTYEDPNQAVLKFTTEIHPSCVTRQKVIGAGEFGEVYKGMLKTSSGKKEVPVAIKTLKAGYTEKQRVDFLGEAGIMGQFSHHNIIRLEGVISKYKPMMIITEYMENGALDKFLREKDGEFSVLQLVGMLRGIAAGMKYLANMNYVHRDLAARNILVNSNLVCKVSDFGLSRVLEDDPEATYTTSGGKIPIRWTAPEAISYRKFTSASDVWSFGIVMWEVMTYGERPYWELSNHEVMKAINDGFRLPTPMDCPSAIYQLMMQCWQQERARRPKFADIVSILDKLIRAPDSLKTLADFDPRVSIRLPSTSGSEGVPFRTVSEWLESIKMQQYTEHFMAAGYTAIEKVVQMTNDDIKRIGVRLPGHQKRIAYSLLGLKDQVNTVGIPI
V5-EphA2 T511M (P29317, form named): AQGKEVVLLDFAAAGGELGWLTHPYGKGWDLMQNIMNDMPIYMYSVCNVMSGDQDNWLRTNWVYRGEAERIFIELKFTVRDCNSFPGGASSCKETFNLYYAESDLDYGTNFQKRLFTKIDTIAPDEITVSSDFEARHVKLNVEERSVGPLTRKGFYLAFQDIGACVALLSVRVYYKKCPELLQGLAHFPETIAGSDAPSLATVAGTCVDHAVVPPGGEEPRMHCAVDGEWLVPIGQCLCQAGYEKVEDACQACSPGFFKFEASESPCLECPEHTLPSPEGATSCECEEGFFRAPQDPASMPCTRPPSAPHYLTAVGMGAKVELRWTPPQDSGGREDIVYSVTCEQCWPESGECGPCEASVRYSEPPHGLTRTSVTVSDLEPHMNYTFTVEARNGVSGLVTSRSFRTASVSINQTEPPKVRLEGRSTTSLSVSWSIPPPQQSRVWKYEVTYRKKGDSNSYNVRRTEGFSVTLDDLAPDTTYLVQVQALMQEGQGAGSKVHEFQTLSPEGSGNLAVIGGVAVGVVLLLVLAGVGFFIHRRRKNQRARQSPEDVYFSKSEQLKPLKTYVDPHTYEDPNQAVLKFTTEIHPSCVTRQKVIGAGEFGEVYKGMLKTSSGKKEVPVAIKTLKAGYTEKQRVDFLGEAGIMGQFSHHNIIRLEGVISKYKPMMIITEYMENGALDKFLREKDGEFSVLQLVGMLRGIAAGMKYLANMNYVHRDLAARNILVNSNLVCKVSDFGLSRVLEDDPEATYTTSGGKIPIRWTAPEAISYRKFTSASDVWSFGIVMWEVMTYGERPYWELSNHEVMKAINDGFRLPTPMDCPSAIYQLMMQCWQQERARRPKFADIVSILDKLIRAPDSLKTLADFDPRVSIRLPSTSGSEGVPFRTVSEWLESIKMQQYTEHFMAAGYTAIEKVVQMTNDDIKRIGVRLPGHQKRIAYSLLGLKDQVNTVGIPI
UniProt P52800, residues 29-336: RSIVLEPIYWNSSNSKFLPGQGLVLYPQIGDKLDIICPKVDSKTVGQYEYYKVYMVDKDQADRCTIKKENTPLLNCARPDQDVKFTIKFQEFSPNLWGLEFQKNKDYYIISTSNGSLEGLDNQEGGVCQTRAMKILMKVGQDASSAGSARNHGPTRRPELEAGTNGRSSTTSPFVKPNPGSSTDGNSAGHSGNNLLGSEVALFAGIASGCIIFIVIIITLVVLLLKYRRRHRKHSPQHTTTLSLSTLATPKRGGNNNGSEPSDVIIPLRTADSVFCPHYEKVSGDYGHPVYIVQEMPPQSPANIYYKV

Read-outs that look alike come from different tables or passages of the source. These are yes or no findings as the source states them, for the method shown. In cells and extracts the contact can be indirect. Some binding calls cover weakened binding; strength is not graded here. For some of these results: Where a sequence is shown, tags or fusion partners need not be part of it.

Assay [1] addresses soluble ephrin-B2 extracellular domain-Fc fusion protein (UniProt P52799). As to the kind of experiment: pull-down; HEK293T cells transfected with wild type or mutated V5-EphA2 incubated with pre-clustered ephrin-A1 Fc or ephrin-B2 Fc at 37 °C, lysed (1% Triton X-100), dynabeads protein G overnight at 4 °C; western blotting with anti-V5; only the target purified.
The target of assay [2] is T1, myc-tagged pendrin (pCMV-Myc-pendrin) (UniProt O43511).
T1 sequence: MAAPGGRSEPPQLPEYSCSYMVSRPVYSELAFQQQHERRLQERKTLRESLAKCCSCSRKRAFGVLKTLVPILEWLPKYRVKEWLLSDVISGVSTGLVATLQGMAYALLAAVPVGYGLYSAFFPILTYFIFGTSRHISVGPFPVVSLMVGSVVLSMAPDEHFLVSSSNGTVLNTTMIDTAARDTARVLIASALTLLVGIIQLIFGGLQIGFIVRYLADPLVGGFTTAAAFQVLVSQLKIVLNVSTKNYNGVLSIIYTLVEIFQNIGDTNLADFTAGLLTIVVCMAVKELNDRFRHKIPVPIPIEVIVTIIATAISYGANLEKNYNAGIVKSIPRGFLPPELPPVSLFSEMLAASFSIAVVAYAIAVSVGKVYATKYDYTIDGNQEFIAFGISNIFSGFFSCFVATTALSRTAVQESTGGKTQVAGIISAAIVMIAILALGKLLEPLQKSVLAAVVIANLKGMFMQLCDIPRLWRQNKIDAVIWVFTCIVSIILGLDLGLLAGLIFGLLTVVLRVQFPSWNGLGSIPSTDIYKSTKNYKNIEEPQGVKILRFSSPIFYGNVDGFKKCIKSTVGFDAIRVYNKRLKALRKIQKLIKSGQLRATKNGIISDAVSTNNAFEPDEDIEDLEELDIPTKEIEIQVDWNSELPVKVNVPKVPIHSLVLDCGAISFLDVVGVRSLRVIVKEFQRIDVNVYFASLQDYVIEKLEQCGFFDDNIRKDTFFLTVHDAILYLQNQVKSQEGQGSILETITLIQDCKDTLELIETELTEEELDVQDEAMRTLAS
As to the kind of experiment: co-IP; HEK293T cells transfected with tagged EphA2 and pendrin constructs; lysis in 50 mM Tris-HCl pH 7.4, 1% Triton X-100, 150 mM NaCl, 1 mM EDTA; anti-c-Myc or anti-FLAG-M2 magnetic beads, 1 h at 4 °C; western blotting.

In assay [3] the target is EphA2 (endogenous, mouse tissues) (mouse (endogenous in kidney, thyroid, inner ear)) (UniProt Q03145). As to the kind of experiment: co-IP; mouse tissue lysates (cochlea, thyroid, kidney) in RIPA buffer; anti-EphA2 antibody with dynabeads protein G overnight at 4 °C; western blotting; EphA2 KO mice as control.
Assay [4] shares this target. Described as above. This is another data set of the same source.
Assay [5] concerns the target V5-EphA2 (pcDNA3.2-V5-EphA2) (UniProt P29317). As to the kind of experiment: co-IP; HEK293T cells transfected with tagged EphA2 and pendrin constructs; lysis in 50 mM Tris-HCl pH 7.4, 1% Triton X-100, 150 mM NaCl, 1 mM EDTA; anti-c-Myc or anti-FLAG-M2 magnetic beads, 1 h at 4 °C; western blotting.

Turning to “V5-EphA2 (pcDNA3.2-V5-EphA2) (from UniProt P29317 24-976) (receptor)”, the binding result in assay [1] and in assay [2] was “binds” throughout.
As to “V5-EphA2 G355R (from UniProt P29317 24-976) (receptor)”, the binding entry in assay [1] was “no binding”; in assay [2], “binds”.
Taken in the same sequence, the figures for “V5-EphA2 T511M (from UniProt P29317 24-976) (receptor)” were “no binding” and “binds”.
Consider “ephrin-B2 (endogenous, mouse kidney) (from UniProt P52800 29-336) (ligand)”, for which the binding result in assay [3] was “binds”.

B1: Slc26a4 (pendrin) (endogenous, mouse tissues) (protein, UniProt Q9R155 1-780)
chain: MAARGGRSEPPQLAEYSCSYTVSRPVYSELAFQQQRERRLPERRTLRDSLARSCSCSRKRAFGVVKTLLPILDWLPKYRVKEWLLSDIISGVSTGLVGTLQGMAYALLAAVPVQFGLYSAFFPILTYFVFGTSRHISVGPFPVVSLMVGSVVLSMAPDDHFLVPSGNGSALNSTTLDTGTRDAARVLLASTLTLLVGIIQLVFGGLQIGFIVRYLADPLVGGFTTAAAFQVLVSQLKIVLNVSTKNYNGILSIIYTLIEIFQNIGDTNIADFIAGLLTIIVCMAVKELNDRFKHRIPVPIPIEVIVTIIATAISYGANLEKNYNAGIVKSIPSGFLPPVLPSVGLFSDMLAASFSIAVVAYAIAVSVGKVYATKHDYVIDGNQEFIAFGISNVFSGFFSCFVATTALSRTAVQESTGGKTQVAGLISAVIVMVAIVALGRLLEPLQKSVLAAVVIANLKGMFMQVCDVPRLWKQNKTDAVIWVFTCIMSIILGLDLGLLAGLLFALLTVVLRVQFPSWNGLGSVPSTDIYKSITHYKNLEEPEGVKILRFSSPIFYGNVDGFKKCINSTVGFDAIRVYNKRLKALRRIQKLIKKGQLRATKNGIISDIGSSNNAFEPDEDVEEPEELNIPTKEIEIQVDWNSELPVKVNVPKVPIHSLVLDCGAVSFLDVVGVRSLRMIVKEFQRIDVNVYFALLQDDVLEKMEQCGFFDDNIRKDRFFLTVHDAILHLQNQVKSREGQDSLLETVARIRDCKDPLDLMEAEMNAEELDVQDEAMRRLAS
Take B1: in assay [4], the binding result was “binds”.

B2: myc-pendrin S166N (protein, UniProt O43511 1-780)
chain: MAAPGGRSEPPQLPEYSCSYMVSRPVYSELAFQQQHERRLQERKTLRESLAKCCSCSRKRAFGVLKTLVPILEWLPKYRVKEWLLSDVISGVSTGLVATLQGMAYALLAAVPVGYGLYSAFFPILTYFIFGTSRHISVGPFPVVSLMVGSVVLSMAPDEHFLVSSNNGTVLNTTMIDTAARDTARVLIASALTLLVGIIQLIFGGLQIGFIVRYLADPLVGGFTTAAAFQVLVSQLKIVLNVSTKNYNGVLSIIYTLVEIFQNIGDTNLADFTAGLLTIVVCMAVKELNDRFRHKIPVPIPIEVIVTIIATAISYGANLEKNYNAGIVKSIPRGFLPPELPPVSLFSEMLAASFSIAVVAYAIAVSVGKVYATKYDYTIDGNQEFIAFGISNIFSGFFSCFVATTALSRTAVQESTGGKTQVAGIISAAIVMIAILALGKLLEPLQKSVLAAVVIANLKGMFMQLCDIPRLWRQNKIDAVIWVFTCIVSIILGLDLGLLAGLIFGLLTVVLRVQFPSWNGLGSIPSTDIYKSTKNYKNIEEPQGVKILRFSSPIFYGNVDGFKKCIKSTVGFDAIRVYNKRLKALRKIQKLIKSGQLRATKNGIISDAVSTNNAFEPDEDIEDLEELDIPTKEIEIQVDWNSELPVKVNVPKVPIHSLVLDCGAISFLDVVGVRSLRVIVKEFQRIDVNVYFASLQDYVIEKLEQCGFFDDNIRKDTFFLTVHDAILYLQNQVKSQEGQGSILETITLIQDCKDTLELIETELTEEELDVQDEAMRTLAS
Consider B2, for which the binding entry in assay [5] is given as “binds”.

B3: myc-pendrin L117F (protein, UniProt O43511 1-780)
chain: MAAPGGRSEPPQLPEYSCSYMVSRPVYSELAFQQQHERRLQERKTLRESLAKCCSCSRKRAFGVLKTLVPILEWLPKYRVKEWLLSDVISGVSTGLVATLQGMAYALLAAVPVGYGFYSAFFPILTYFIFGTSRHISVGPFPVVSLMVGSVVLSMAPDEHFLVSSSNGTVLNTTMIDTAARDTARVLIASALTLLVGIIQLIFGGLQIGFIVRYLADPLVGGFTTAAAFQVLVSQLKIVLNVSTKNYNGVLSIIYTLVEIFQNIGDTNLADFTAGLLTIVVCMAVKELNDRFRHKIPVPIPIEVIVTIIATAISYGANLEKNYNAGIVKSIPRGFLPPELPPVSLFSEMLAASFSIAVVAYAIAVSVGKVYATKYDYTIDGNQEFIAFGISNIFSGFFSCFVATTALSRTAVQESTGGKTQVAGIISAAIVMIAILALGKLLEPLQKSVLAAVVIANLKGMFMQLCDIPRLWRQNKIDAVIWVFTCIVSIILGLDLGLLAGLIFGLLTVVLRVQFPSWNGLGSIPSTDIYKSTKNYKNIEEPQGVKILRFSSPIFYGNVDGFKKCIKSTVGFDAIRVYNKRLKALRKIQKLIKSGQLRATKNGIISDAVSTNNAFEPDEDIEDLEELDIPTKEIEIQVDWNSELPVKVNVPKVPIHSLVLDCGAISFLDVVGVRSLRVIVKEFQRIDVNVYFASLQDYVIEKLEQCGFFDDNIRKDTFFLTVHDAILYLQNQVKSQEGQGSILETITLIQDCKDTLELIETELTEEELDVQDEAMRTLAS
Regarding B3, in assay [5], the binding entry is on record as “binds”.
